# In the BET-seq Pho4 binding data (Le et al. 2018):
# The list shows a part of the results. Values were computed here from the reads of four pooled replicates and scatter widely.
# Target: T1, Pho4 (S. cerevisiae) (UniProt P07270)
# T1 sequence: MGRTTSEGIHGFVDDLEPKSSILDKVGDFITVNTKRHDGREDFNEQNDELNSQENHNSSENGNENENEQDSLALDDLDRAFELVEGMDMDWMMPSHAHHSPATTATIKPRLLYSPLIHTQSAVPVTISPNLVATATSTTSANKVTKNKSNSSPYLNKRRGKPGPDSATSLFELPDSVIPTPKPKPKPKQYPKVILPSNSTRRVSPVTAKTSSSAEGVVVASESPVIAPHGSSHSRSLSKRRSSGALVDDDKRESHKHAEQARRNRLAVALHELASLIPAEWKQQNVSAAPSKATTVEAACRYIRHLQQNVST
# Test: relative binding free energy (BET-seq); higher = weaker binding
# Details: reference: library average
row,Sequence,relative binding free energy [kcal/mol]
1,GTAAGCACGTGTTAAT,0
2,TTTTACACGTGTAGAC,0.25
3,GGGGTCACGTGATCGT,0.36
4,GATATCACGTGGGCGT,0.14
5,GTGGCCACGTGGTGGC,0.02
6,AGTGGCACGTGTGAGA,-0.09
7,TGTAGCACGTGCAATT,0.03
8,GTGCTCACGTGCTGGG,0.17
9,TATAGCACGTGTCGTA,-0.11
10,TTGGTCACGTGGGTTG,0.05
11,TGGAGCACGTGACGGC,0.08
12,TTCTGCACGTGTTACG,0.01
13,AGCAGCACGTGGGGAA,-0.03
14,TGTGCCACGTGAAGGA,0.08
15,TTTGTCACGTGCATTC,0.09
16,CGGTTCACGTGCGGGT,0.35
17,TGTGGCACGTGGCGGG,-0.11
18,TTGGTCACGTGTTTTG,0.17
19,AATTTCACGTGTCATT,0.15

row,Sequence,relative binding free energy [kcal/mol]
1,CTGTGCACGTGGGCAT,-0.22
2,AAATTCACGTGAGGTG,0.46
3,TGGTCCACGTGGGAGC,-0.1
4,AGCGTCACGTGTTTTT,0.07
5,GGGGTCACGTGAAGTG,0.35
6,TGCGACACGTGGGCGA,0
7,GTATGCACGTGCGGGC,-0.17
8,ATATACACGTGGGGGC,-0.11
9,TTCTTCACGTGCTTTG,0.23
10,TAGTGCACGTGACGTA,0.15
11,GATTGCACGTGTAAGG,0.15
12,GCTGGCACGTGGAATG,-0.05
13,TGTAGCACGTGGATAT,-0.04
14,TTCGTCACGTGTTAGT,0.16
15,ATTATCACGTGTTGAG,0.2
16,TGACGCACGTGTGTTG,-0.14
17,CGTATCACGTGGGGAA,0
18,TGTAGCACGTGTAGAT,0.13
19,TAGAGCACGTGATAGT,-0.09

row,Sequence,relative binding free energy [kcal/mol]
1,AGGTACACGTGTGTGC,0.01
2,GGGTTCACGTGTCCAG,0.45
3,CGCTGCACGTGATGTT,0.07
4,TGTTTCACGTGTCTGA,0.27
5,GTGTGCACGTGTTAGA,-0.03
6,TTCTTCACGTGTGTAG,0.38
7,AGCTTCACGTGTAAGT,0.33
8,TTTTACACGTGGTCGT,0.05
9,TCGACCACGTGGGGTG,-0.26
10,AGTCGCACGTGGCTTG,-0.18
11,TGCGGCACGTGAGGCG,0.09
12,ATGGGCACGTGTAAGG,-0.06
13,GGTTGCACGTGCGTCG,0.05
14,GATGTCACGTGGGGGT,0.04
15,TATCGCACGTGTTGCG,0.12
16,TGTGACACGTGGAGGT,-0.05
17,TGGTACACGTGTCGTG,0.1
18,GCATTCACGTGTAGGG,0.18
19,TGTGACACGTGTGTTA,0.01
